# Laboratory results as given in PubChem BioAssay AID1347073 (National Center for Advancing Translational Sciences (NCATS), 2019).
# Among all 45,000 compounds or so, about 200 (0.44%) were called active. Another 7% or so got no clear call; they are omitted. The call rests on the fitted dose curve; in most records, active means well fitted activation curve with a large enough effect; inconclusive means small, poorly fitted or top-dose-only effect; inactive means no such curve, though single readings can be large or run the other way. The list shows a part of the results.
# Test: qHTS of TDP-43 Inhibitors: NCGC Sytravon Library Screen; further: 0% is about no effect; nearly all actives have a fitted effect of over 55% in size
# Conditions: yeast TDP-43 toxicity rescue, BacTiter-Glo growth, 24 h; series mostly up to 46.1 µM; growth rescue (activation): at the top concentration
# Method in brief: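 TDP-43-expressing yeast, pregrown in raffinose, seeded at OD600 0.02 in galactose medium with compound for 24 hr at 30 deg C. Growth read by BacTiter-Glo luminescence, so rescue of toxicity appears as activation.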
row,Structure (SMILES),growth rescue (activation)
1,CC1(C)O[C@H]2[C@@H](O1)[C@@H](C(=O)Nc1cc(F)ccc1F)O[C@@H]1OC(C)(C)O[C@@H]12,inactive: 6.5%
2,C/C(=N/NC(=O)CNC(=O)c1ccccn1)c1ccc([N+](=O)[O-])cc1,inactive: 9.51%
3,COc1ccc(/C=N/Nc2nc(Nc3ccccc3)nc(N3CCCC3)n2)cc1[N+](=O)[O-],inactive: 6.05%
4,Fc1ccccc1CCNc1c2c(nc3ncnn13)CCCC2,inactive: 15.8%
5,CCOc1ccc(C(=O)OCC(=O)N2CCCC2)cc1OCC,inactive: 7.64%
6,Nc1ncnc(NC2CCS(=O)(=O)C2)c1[N+](=O)[O-] (stereo not drawn),inactive: -0.0356%
7,O=C(C1CCN(S(=O)(=O)c2cccc3cccnc23)CC1)N1CCN(c2ccccn2)CC1,inactive: 18.2%
8,C=CCNC(=O)COC(=O)c1cc(S(=O)(=O)N2CCCCC2)ccc1Cl,inactive: 11.8%
9,CCS(=O)(=O)N1CCN(Cc2ccc([N+](=O)[O-])cc2)CC1,inactive: -4.06%
10,CC(=O)N(C)c1ccc(NC(=O)c2cnn(C)c2)cc1,inactive: -4.56%
11,Cc1ccc(C(=O)NC(=S)Nc2cccc(NC(=O)c3ccccc3)c2)cc1[N+](=O)[O-],inactive: 15.3%
12,O=C(Nc1ccc(Cl)c(S(=O)(=O)N2CCOCC2)c1)c1ccc2c(c1)OCO2,inactive: 2.63%
13,Cc1c(C(=O)NN2CCOCC2)oc2ccccc12,inactive: 11.6%
14,CCCCOCC(O)CCc1n[nH]c(=S)n1-c1ccccc1 (stereo not drawn),inactive: 10.2%
15,COc1ccc(-c2ccc(=O)n(CC(=O)Nc3ccc4c(c3)OCCO4)n2)cc1,inactive: -4.36%
16,CCC(C)n1nccc1NC(=O)C(C)Cl (stereo not drawn),inactive: 7.08%
17,O=C(NCc1cc(Cl)cc(Cl)c1)c1ccc2sc([C@@H]3O[C@H](CO)[C@H](O)[C@H](O)[C@H]3O)nc2c1,inactive: 7.84%
18,CCCn1c2ccc(C)cc2c2nnc(SCCN3CCCCC3)nc21,inactive: 10.4%
19,CNC(=O)CNC(=O)Nc1ccc(Cl)c(Cl)c1,inactive: 8.62%
20,COc1ccc(-c2nnc(SCC(=O)NNC(=O)Cc3ccccc3)n2C)cc1OC,inactive: 13.6%
21,CCOC(=O)c1ccc(NC(=O)COc2ccccc2CNC2CCCC2)cc1,inactive: 15%
22,CC(Cc1ccsc1)NC(=O)CCc1nnc(COc2ccccc2)o1 (stereo not drawn),inactive: 17.4%

row,Structure (SMILES),growth rescue (activation)
1,CN(C(=O)CN1CCC(NC(=O)c2ccccc2Br)CC1)C1CCCCC1,inactive: 8.48%
2,CSc1ncccc1C(=O)OCC(=O)NC(C)C,inactive: 4.66%
3,COc1cc(OC)c(OC)cc1/C=N/NC(=O)c1cccc(S(=O)(=O)N2CCOCC2)c1,inactive: 13.6%
4,CCOc1ccc(NC(=O)C[n+]2ccc(N(C)C)cc2)cc1,inactive: 11.1%
5,COc1ccc(N(C(=O)c2cccnc2)S(=O)(=O)c2cccc([N+](=O)[O-])c2)cc1,inactive: 15.2%
6,FC(F)Oc1ccccc1/C=N/Nc1nc2ccccc2o1,inactive: 10.2%
7,CCOc1ccc(NC(=O)c2ccccc2NC(=O)CN(C)CC(=O)Nc2ccc(C)cc2)cc1,inactive: 3.92%
8,O=S(=O)(NCC1CCCO1)c1ccc(S(=O)(=O)N(Cc2ccc(F)cc2)Cc2ccccn2)cc1 (stereo not drawn),inactive: 10.5%
9,COc1cc(-c2nc(CN3CCN(CC(C)C)C(=O)[C@@H]3C)c(C)o2)ccc1F,inactive: -7.76%
10,O=C(CSCc1c(Cl)cccc1Cl)N1CCOCC1,inactive: 20.9%
11,CCCCC(=O)Nc1cccc(NC(=S)NC(C)=O)c1,inactive: -7.13%
12,CCc1nnc(NC(=O)CSc2nc(-c3ccccc3)cc(-c3ccc(OC)cc3)c2C#N)s1,inactive: 8.77%
13,COc1ccccc1N1CC(C(=O)Nc2cccc(C(=O)O)c2)CC1=O (stereo not drawn),inactive: -14.1%
14,CC(=O)Nc1cccc(-c2csc(C(C)(O)c3cccc(F)c3)n2)c1 (stereo not drawn),inactive: 9.61%
15,Cc1ccc(S(=O)(=O)NCCn2nc(C)nc2C)cc1,inactive: 9.4%
16,CCC(Oc1ccc2c(=O)c(-c3ccccc3OC)coc2c1)C(=O)OCc1ccccc1 (stereo not drawn),inactive: 14.6%
17,COc1ccc2c(CC(=O)Nc3ncc(C)s3)coc2c1,inactive: 5.67%
18,O=[N+]([O-])c1cccc(/C=N/N2CCN(Cc3ccccc3)CC2)c1,inactive: 3.21%
19,CSc1nc2ccsc2c(=O)n1-c1cccnc1,inactive: 2.09%
20,CN(CC(O)COc1ccccc1F)C1CCCCC1 (stereo not drawn),inactive: -4.42%
21,Cc1cccc(NC(=O)CSc2c3c(nc4ccccc24)CCC3)n1,inactive: 9.65%
22,Cc1ccc(S(=O)(=O)N2CCC(C(=O)NCCCN3CCCC3=O)CC2)cc1,inactive: 9.59%

row,Structure (SMILES),growth rescue (activation)
1,COc1ccc(-c2nc(CN3CCCCC3c3cccnc3)c(C)o2)c(F)c1 (stereo not drawn),inactive: 2.27%
2,Nc1nccnc1C(=O)OCC(=O)Nc1cccc(S(=O)(=O)N2CCCCC2)c1,inactive: 5.6%
3,CC1(C(=O)NS(=O)(=O)c2cccc(OC(F)F)c2)CCN1C(=O)COc1ccc(Cl)cc1 (stereo not drawn),inactive: -5.68%
4,O=C(CSc1nc(O)cc(=O)[nH]1)C1CC1,inactive: -11.4%
5,O=C(Cn1cccc1C(=O)c1ccccc1)NCc1cccc(Cl)c1,inactive: -4.51%
6,COc1ccc(N(C(=O)c2snc(C(N)=O)c2N)C(C(=O)NC2CCCC2)c2cccs2)cc1OC (stereo not drawn),inactive: -8.28%
7,CC(C)c1ccccc1NC1=CC(=O)CC(C)(C)C1,inactive: 25.9%
8,CCn1nc([N+](=O)[O-])c(C(C#N)c2nc3ccccc3n2C)c(Cl)c1=O (stereo not drawn),inactive: 7.65%
9,Cc1cccc(C(=O)Nc2ccc3c(c2)nc(C)n3C)c1,inactive: 4.5%
10,CC(CC(=O)Nc1ccccc1C(F)(F)F)c1ccccc1 (stereo not drawn),inactive: -13.4%
11,CN(C)CCN1C(=O)C(=O)/C(=C(/O)c2ccccc2)C1c1ccccc1F (stereo not drawn),inactive: -14.8%
12,O=C(O)c1sc2ncccc2c1OCc1ccccc1,inactive: 5.24%
13,Cc1noc(C(=O)Nc2ccc(C#N)cc2)c1Cl,inactive: 0.801%
14,CCOC(=O)c1csc(NC(C)=O)n1,inactive: 11.7%
15,CCC(c1nnnn1C1CCCCC1)N1CCN(C(=O)c2ccco2)CC1 (stereo not drawn),inactive: 7.44%
16,CCc1ccc(N2CC(C(=O)Nc3ccc(S(=O)(=O)Nc4nccs4)cc3)CC2=O)cc1 (stereo not drawn),inactive: 3.52%
17,CC(=O)c1ccc(N2CCN(c3ncccn3)CC2)c([N+](=O)[O-])c1,inactive: 19.7%
18,O=C1COc2ccc(S(=O)(=O)NCCc3ccc(Cl)cc3)cc2N1,inactive: 7.34%
19,CC(=O)c1ccc2c(c1)OCCOCCOCCO2,inactive: -0.0146%
20,COc1cc(OC)c(S(=O)(=O)NC(C)C)cc1S(=O)(=O)NC(C)C,inactive: -7.4%
21,O=C(/C=C/c1ccccc1)NCCSCc1ccc(Cl)cc1,inactive: 23.3%
22,O=C(CCC(=O)N1CCN(S(=O)(=O)c2ccc(Cl)cc2)CC1)NCc1ccccc1,inactive: 1.47%

row,Structure (SMILES),growth rescue (activation)
1,O=C(NC(=S)NNC(=O)c1ccccc1O)c1cccc([N+](=O)[O-])c1,inactive: -24.4%
2,Cc1ccc(-c2n[nH]c3c2C(c2ccccc2)N(c2ccc(C(=O)O)cc2)C3=O)cc1 (stereo not drawn),inactive: 11.6%
3,CCOc1ccccc1CNC(=O)c1cc2oc3ccccc3c2n1CC,inactive: 1.76%
4,O=c1oc2ccc(NS(=O)(=O)c3cccc4cccnc34)cc2s1,inactive: -19.3%
5,Cc1ccccc1N=Nc1ccc(O)c2ncccc12,inactive: -28.9%
6,O=C(/C=C/c1cc(Br)ccc1F)Nc1cccnc1,inactive: 2.17%
7,Cc1cc(C)n(C(=O)CNC(=O)c2cccc(F)c2)n1,inactive: -8.49%
8,Cc1ccc2nc(C(F)C(F)(F)F)[nH]c2c1 (stereo not drawn),inactive: -15.8%
9,OCC1(Cc2ccccc2)CCN(Cc2cnc(-c3cccc4ccccc34)nc2)CC1,inactive: 13.1%
10,Cc1cccc2c(CCNC(=O)c3ccc([N+](=O)[O-])cc3)c[nH]c12,inactive: -5.44%
11,COc1ccc(CNC(=O)COC(=O)c2ccc(C(=O)c3ccccc3)cc2)cc1,inactive: 13.3%
12,CN1CCN(c2ccc(S(=O)(=O)N3CCCCC3)cc2NC(=O)Cc2ccccc2F)CC1,inactive: 4.26%
13,CCCS(=O)(=O)N1CCC(C(=O)NCCCN(C)Cc2ccccc2)CC1,inactive: 16.6%
14,Cc1cc(=O)n2[nH]c(NCc3ccccc3F)nc2n1,inactive: -8.32%
15,COC(=O)C1C(=O)C2=C(CC1C)Nc1ccccc1NC2c1ccc(C)s1 (stereo not drawn),inactive: -3.23%
16,CCOC(CNC(=O)Cc1c(C)nc2c(-c3ccccc3)c(C)nn2c1C)OCC,inactive: 10.6%
17,COc1ccc(S(=O)(=O)NCCSCc2ccco2)cc1,inactive: 11.4%
18,O=C(c1ccc2ccccc2c1)N1CCCCC1,inactive: 12.2%
19,O=C(NCCCN1CCOCC1)c1ccc2c(c1)N(Cc1cccc(Cl)c1)C(=O)CS2,inactive: 8.55%
20,CCCCN(C(=O)CSc1nnc(-c2ccccc2)n1C)c1c(N)n(Cc2ccccc2)c(=O)[nH]c1=O,inactive: 8.7%
21,S=C(NCc1ccco1)Nc1ccc(N2CCOCC2)cc1,inactive: 5.78%
22,COc1ccccc1N(CC(=O)NC1CCCCC1)S(=O)(=O)c1ccccc1,inactive: 9.39%

row,Structure (SMILES),growth rescue (activation)
1,CCOC(=O)C(=O)NC(C)CCc1ccccc1 (stereo not drawn),inactive: 13.4%
2,COc1cccc(NC(=O)NC2CCN(CC(=O)Nc3ccccc3[N+](=O)[O-])CC2)c1,inactive: 7.03%
3,O=C1Nc2ccccc2N(O)N1c1ccc(S(=O)(=O)Nc2ccccn2)cc1,inactive: -7.59%
4,O=C1CN=C(Nc2ccc(Cl)cc2)N1c1ccccc1,inactive: -17.6%
5,Cc1ccc(-c2csc3nc(CN(C)Cc4ccccc4)[nH]c(=O)c23)cc1,inactive: -0.733%
6,COc1cc(NC(=S)NC(=O)c2ccccc2F)ccc1NC(=O)c1ccco1,inactive: -5.82%
7,O=C(Nc1ccc(Cl)cc1F)C1CC(=O)N(Cc2ccco2)C1 (stereo not drawn),inactive: 10.1%
8,CCCc1nc(-c2cc3ccccc3[nH]c2=O)no1,inactive: 0.627%
9,O=C(Nc1ccc(Oc2ccccc2)cc1)c1csc([C@@H]2O[C@H](CO)[C@@H](O)[C@H]2O)n1,inactive: 6.22%
10,CC(=O)C(C)n1c(CN(C)Cc2ccccc2)nc2c1c(=O)n(C)c(=O)n2C (stereo not drawn),inactive: 12%
11,CC(NCc1cccs1)C(=O)Nc1cc(Cl)cc(Cl)c1 (stereo not drawn),inactive: 9.77%
12,O=C(N/N=C/c1ccccc1F)C(=O)N1CCCCCC1,inactive: 4.36%
13,Cc1ccc(SCCN)cc1C,inactive: -0.665%
14,COc1ccccc1-n1cnnc1SC(C)C(=O)Nc1cccc([N+](=O)[O-])c1 (stereo not drawn),inactive: 14.8%
15,COCCn1c(SCC(=O)N2CCCC(C)C2)nnc1-c1ccco1 (stereo not drawn),inactive: 9.1%
16,COC(=O)c1ccc(CNC(=O)c2ccc3c(c2)OCCO3)cc1,inactive: 14.6%
17,CCCNC(=O)c1cc(C2CCCN(S(=O)(=O)c3cccc4cccnc34)C2)on1 (stereo not drawn),inactive: 5.93%
18,CCOC(=O)CN1C(=O)CCSc2ccc(Cl)cc21,inactive: 17%
19,CN1N=C(C(=O)N2CCCC(C(=O)c3cccc(C(F)(F)F)c3)C2)CCC1=O (stereo not drawn),inactive: 13.5%
20,CCOc1ccc2nc(SC3CC(=O)N(c4cccc(OC)c4)C3=O)sc2c1 (stereo not drawn),inactive: 33%
